# Assay results taken from PubChem BioAssay AID1460 (National Center for Advancing Translational Sciences (NCATS), 2008).
# Screen size: about 270,000 compounds; about 5,800 (2.1%) were called active. The shares of active, inactive and inconclusive entries below differ from those in the screen. Calls follow the shape of the dose curve; as a rule, active = well fitted inhibition curve with a large enough effect; inconclusive = small, poorly fitted or top-dose-only effect; inactive = flat fitted curve, though single readings scatter. Where the call is inconclusive, the potency comes from a doubtful curve fit.
# Target: Microtubule-associated protein tau (Homo sapiens) (UniProt P10636)
# Experiment: qHTS for Inhibitors of Tau Fibril Formation, Thioflavin T Binding; also: nearly all actives have a fitted effect of over 55% in size
# Details: recombinant tau K18 P301L, heparin-induced fibrillization, ThT fluorescence; series mostly up to 57.4 µM
# Method in brief: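 Using a mix of unlabeled (15 uM) and Alexa 594-labeled (0.24 uM) tau K18 P301L, heparin-triggered fibrillization over 6 hr at 37 C was scored by ThT fluorescence.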
# Potency is read from the fitted curve at half-maximal effect; tags tell the direction and shape of the fitted curve.
# Sequence of UniProt P10636 (P10636 whole entry, looked up): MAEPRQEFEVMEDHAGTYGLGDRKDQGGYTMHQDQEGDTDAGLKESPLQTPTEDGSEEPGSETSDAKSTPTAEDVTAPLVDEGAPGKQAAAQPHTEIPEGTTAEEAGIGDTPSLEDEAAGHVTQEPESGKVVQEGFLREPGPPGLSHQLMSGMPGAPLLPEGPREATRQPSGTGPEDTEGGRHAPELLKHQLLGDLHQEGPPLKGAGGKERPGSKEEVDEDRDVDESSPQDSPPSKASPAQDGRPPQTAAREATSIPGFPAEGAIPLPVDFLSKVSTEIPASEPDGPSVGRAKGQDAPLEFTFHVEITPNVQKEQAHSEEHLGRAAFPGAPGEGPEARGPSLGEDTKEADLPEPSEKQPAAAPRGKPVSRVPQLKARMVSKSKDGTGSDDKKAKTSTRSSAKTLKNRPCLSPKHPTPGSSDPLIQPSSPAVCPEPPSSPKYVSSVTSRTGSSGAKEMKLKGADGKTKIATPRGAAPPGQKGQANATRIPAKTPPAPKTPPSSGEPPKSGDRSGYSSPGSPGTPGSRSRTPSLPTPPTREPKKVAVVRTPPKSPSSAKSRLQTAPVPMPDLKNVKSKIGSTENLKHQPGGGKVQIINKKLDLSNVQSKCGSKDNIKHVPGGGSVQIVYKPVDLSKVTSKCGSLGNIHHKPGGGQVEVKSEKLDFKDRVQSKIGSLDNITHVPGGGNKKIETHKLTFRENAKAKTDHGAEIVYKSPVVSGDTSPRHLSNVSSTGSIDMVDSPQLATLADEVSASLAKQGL
row,SMILES,Potency
1,CC(C)CCn1c(SCc2c(F)cccc2Cl)nc2ccsc2c1=O,inactive
2,O=C(Nc1ccc(N2CCN(C(=O)c3ccco3)CC2)c(Cl)c1)c1cccs1,"inconclusive: 15.8 µM [inhibitor, partial curve]"
3,Cc1cn2c(=O)cc(COc3ccc(C(C)(C)C)cc3)nc2s1,"inconclusive: 2.51 µM [inhibitor, full curve]"
4,Cc1ccnc(NC(c2ccccn2)c2c(C)[nH]c3ccccc23)c1 (stereo unspecified),"inconclusive: 14.1 µM [inhibitor, partial curve]"
5,CCOC(=O)C1=C(CSc2nc3c(cc2C#N)CN(C)CC3)OC(N)=C(C#N)C1c1ccccc1 (stereo unspecified),active: 28.2 µM
6,CC(C)C(=O)N1CCN(c2ccc(NC(=O)c3ccc(Br)o3)cc2)CC1,"inconclusive: 14.1 µM [inhibitor, partial curve]"
7,C=C(Cl)COc1ccc2c(C)cc(=O)oc2c1,"inconclusive: 22.4 µM [inhibitor, single point]"
8,CC(NC(=O)CCc1nnc(CCCc2ccccc2)o1)c1ccccc1 (stereo unspecified),inactive
9,CCCCCC(=O)Nc1nc(C)c(-c2csc(Nc3ccccc3OCC)n2)s1,"inconclusive: 8.91 µM [inhibitor, partial curve]"
10,CC(NC(=S)Nc1ccc([N+](=O)[O-])cc1)c1ccncc1 (stereo unspecified),inactive
11,CCc1c(C)nc(Nc2nc(C)c3ccc(OC)cc3n2)[nH]c1=O,inactive
12,O=C(O)c1ccccc1C(=O)Nc1ccc(S(=O)(=O)Nc2nccs2)cc1,inactive
13,CCOC(=O)c1c(NC(=O)C(C)NCc2ccco2)sc2c1CCC(C)C2 (stereo unspecified),"inconclusive: 22.4 µM [inhibitor, partial curve]"
14,CCOc1ccc2nc(NC(=O)c3nc(SC(C)C)ncc3Cl)sc2c1,"inconclusive: 7.94 µM [inhibitor, full curve, poor fit]"
15,CCc1cccc2c(-c3ccccc3)nc(SCC(=O)Nc3ccc(OC)cc3)nc12,inactive
16,COC(=O)/C=C/c1ccc(OC(=O)c2ccncc2)cc1,"inconclusive: 10 µM [inhibitor, partial curve]"
17,COc1ccc(C(=O)NCC(=O)OCC(=O)Nc2cc([N+](=O)[O-])ccc2F)cc1,inactive
18,COc1ccc(C2C(C(=O)OC(C)C)=C(C)N=c3s/c(=C\c4cccs4)c(=O)n32)cc1 (stereo unspecified),"inconclusive: 15.8 µM [inhibitor, partial curve]"
19,COc1cccc(-c2csc(N3CCN(C(=S)Nc4ccccc4Cl)CC3)n2)c1,"inconclusive: 11.2 µM [inhibitor, partial curve]"
20,CC(C)[C@H](NC(=O)CNC(=O)OC(C)(C)C)C(=O)N[C@H](C=O)C(C)C,inactive
21,CC1=NN(c2ccccc2)C(=O)C1C=Nc1ccc(N(C)C)cc1 (stereo unspecified),active: 7.94 µM
22,CC(=O)c1ccc(N2Cc3ccccc3C2=NC(=O)c2cccs2)cc1,"inconclusive: 2 µM [inhibitor, full curve]"
23,OC(CN1CCN(c2cccc(C(F)(F)F)c2)CC1)c1c[nH]c2ccccc12 (stereo unspecified),"inconclusive: 11.2 µM [inhibitor, partial curve]"

row,SMILES,Potency
1,CCCCNc1nc(N(C)c2ccccc2)nc(-n2ccnc2)n1,"inconclusive: 25.1 µM [inhibitor, partial curve]"
2,CCOC(=O)Nc1ccc2c(c1)N(C(=O)CCN1CCOCC1)c1ccccc1S2=O (stereo unspecified),"inconclusive: 10 µM [inhibitor, partial curve]"
3,O=C(CCCN1C(=O)C2CCCCN2C1=O)N1CCN(c2ccc([N+](=O)[O-])cc2)CC1 (stereo unspecified),"inconclusive: 0.355 µM [inhibitor, partial curve]"
4,COc1cc(NC(=O)C2CCCN(S(=O)(=O)c3cn(C)cn3)C2)cc(OC)c1 (stereo unspecified),inactive
5,Cc1nc2ccc(NC(=O)COc3cccc(F)c3)cc2s1,"inconclusive: 3.98 µM [inhibitor, partial curve]"
6,O=C(CSc1ncn[nH]1)CSc1ncn[nH]1,inactive
7,O=C(/C=C/c1ccccc1)Nc1ncn[nH]1,active: 10 µM
8,COc1cc(/C=N/Nc2ccc3ccccc3c2)ccc1OC(=O)c1ccco1,active: 12.6 µM
9,CCc1ccc(-n2c(CCC(=O)O)ccc2-c2cccs2)cc1,"inconclusive: 17.8 µM [inhibitor, partial curve]"
10,CCc1ccc2c(c1)c1nnc(NN)nc1n2C,"inconclusive: 15.8 µM [inhibitor, partial curve]"
11,CC(/C=C1\SC(=S)N(C(C(=O)O)C(C)C)C1=O)=C\c1ccccc1 (stereo unspecified),active: 22.4 µM
12,COc1ccc(-n2ccn(CC(=O)Nc3ccccc3C(F)(F)F)c(=O)c2=O)cc1OC,"inconclusive: 5.01 µM [inhibitor, partial curve]"
13,O=C(/C=C/c1cccc([N+](=O)[O-])c1)n1cnc2ccccc21,active: 12.6 µM
14,CCOc1ccc(NC(=O)c2sc3nc(-c4ccc(OC)cc4)cn3c2C)cc1,"inconclusive: 0.708 µM [inhibitor, full curve]"
15,Cc1ccc2sc(C)[n+](CCCS(=O)(=O)[O-])c2c1,"inconclusive: 15.8 µM [inhibitor, partial curve]"
16,COC(=O)c1cc2c(-c3ccccc3)cc3ccccn3c-2c1C(=O)OC,active: 15.8 µM
17,CCOC(=O)Cc1c(C)nc2c(-c3ccc(Cl)cc3)c[nH]n2c1=O,"inconclusive: 10 µM [inhibitor, partial curve]"
18,O=C1c2ccccc2-c2nnc(-c3ccccc3)cc21,"inconclusive: 4.47 µM [inhibitor, full curve]"
19,Cc1ccccc1NC(=O)Cn1c(=O)n(CCCCCC(=O)NCc2ccc3c(c2)OCO3)c(=O)c2sccc21,inactive
20,CC(=O)N1CCc2c(sc3c2c(=O)n(CCc2ccccc2)c(=O)n3Cc2ccc(F)cc2)C1,"inconclusive: 39.8 µM [inhibitor, single point]"
21,CC1CCCN(CCC(=O)c2ccc(Br)cc2)C1 (stereo unspecified),"inconclusive: 14.1 µM [inhibitor, partial curve, poor fit]"
22,Cc1ccc2nc3c(cc2c1)CN(Cc1ccco1)C(=NCC1CCCO1)S3 (stereo unspecified),inactive
23,O=C(NC1CC(=O)N(c2ccc(Cl)cc2)C1)C(=O)c1c[nH]c2ccccc12 (stereo unspecified),inactive
